# Experimental data taken from the supplement of paper PMC7826260.
# Some of the results follow. One pool of 16,384 single-stranded DNAs met each Rep nickase domain in vitro at 3 µM enzyme and 37 °C for 1 h; the strands have 90 letters, of which the middle is given. Values are log2 of uncut reads against the no-enzyme pool; the lower, the more was cut; hits are not called. Shares of all reads are compared; where an enzyme cuts many sequences, the uncut ones exceed 0.
# Tested on: T1, Rep nickase domain of Muscovy duck circovirus
# T1 sequence (Rep 1-111, printed without the tag): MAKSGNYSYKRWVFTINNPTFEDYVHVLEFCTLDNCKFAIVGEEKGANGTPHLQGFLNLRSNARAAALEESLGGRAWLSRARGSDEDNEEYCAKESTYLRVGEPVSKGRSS
# Assay: uncleaved DNA left, log2 of reads against the no-enzyme library (log2 ratio); higher = less cleavage (more negative = more Rep cleavage of the k-mer); sequences stand for … in CTCGTCCG…ACCGGAGA
# Procedure: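 A pool of 90-nt single-stranded DNAs with seven random bases just before the constant AC of the nick site (name = the seven bases) was cut by 3 µM recombinant His6-SUMO-tagged Rep nickase domain (300 nM DNA, 50 mM HEPES pH 8.0, 50 mM NaCl, 1 mM MnCl2, 1 h, 37 °C, three replicates). Uncut DNA was amplified and sequenced.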
row,Sequence,uncleaved DNA left (log2)
1,TCTAGCG,-0.034
2,TATCAAA,0.0543
3,CTTTGAA,0.029
4,AATGGGA,0.0347
5,CCGCACT,0.165
6,CTAGCTA,-0.0809
7,TCGTTGC,-0.00126
8,CCTACCC,-0.226
9,TAGAGCG,0.0165
10,GAAGGGG,0.0173
11,ACGTAGA,-0.0531
12,TGTCTAG,0.0228
13,CGGGACG,0.071
14,CTCGCAC,0.103
15,TGAATGT,0.0489
16,AATGCAT,0.0442
17,ACCACAA,0.0817
18,CGTCGAT,0.0701
19,GGTAGGC,-0.0436
20,GTTCGAC,0.0419

row,Sequence,uncleaved DNA left (log2)
1,CGGCTGA,0.0453
2,CCTGCAG,-0.0972
3,GCCAGTA,0.00609
4,CTAGGCC,-0.0791
5,GCCGCCC,-0.0234
6,TATGTCT,-0.161
7,CGAGATT,-0.132
8,TCTAACC,-0.189
9,ATCGCGG,-0.111
10,AGGAGAA,0.0954
11,GGCGATG,0.00627
12,GATATTT,-0.117
13,AGTAATG,0.0209
14,GCTAGTA,-0.0155
15,TGCCGGA,-0.0239
16,GTCTAAG,0.222
17,CCTCTTC,0.0964
18,CCACTGA,0.104
19,ATGACGG,0.0675
20,CAGAGTC,-0.0372
